Laboratory results taken from PubChem BioAssay (NCI).
Values joined by “and” are separate entries in the source; they are usually repeats but may differ in a detail not shown here. Identical values can stand only once.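 Each compound was tested at five concentrations against cells in 96-well plates for 48 hours. Abbreviation: GI50, concentration required for 50% inhibition of growth. TGI denotes the concentration required for complete inhibition of growth.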

System: NCI-H322M lung
Assay: NCI-60 cell line screen, 48 h

SMILES | TGI | GI50
Clc1ccc(Cc2nc3cc(Cl)c(Cl)cc3n2CC2CCCN3CCCCC23)cc1 (stereo not given) | 25.7 µM | –
CCN(CC)C(=O)Cc1[nH][nH]c(=O)c1C(=O)N(CC)CC | > 100 µM | –
CCCNC(=O)c1cc(OC)c(OC)cc1NC(=O)C12CC3CC(CC(C3)C1)C2 | 32.3 µM | –
CC1CCc2c(C(=O)Nc3ncc(Cc4cccc([N+](=O)[O-])c4)s3)csc2C1 (stereo not given) | > 100 µM | 2.29 µM
COc1cc2c(cc1O)CCN[C@@]21CS[C@H]2c3c(OC(C)=O)c(C)c4c(c3C(COC1=O)N1C2C2NC(Cc3cc(C)c(OC)c(O)c32)[C@@H]1O)OCO4 (stereo not given in full) | – | 0.000459 ng/mL and 4.5 ng/mL
CC1=Nc2ccccc2S/C1=C1/C=NC(=NC#N)N=C1C(=O)Nc1cccc(Cl)c1 | > 100 µM | –
COc1cc([C@H]2OC[C@@H]3C(c4cc(OC)c5c(c4)OCO5)OC[C@H]23)cc(OC)c1OC (stereo not given in full) | > 100 µM | –
CC1=C(C(=S)Nc2ccc(Cl)c(C(=O)OC(C)C)c2)SCCO1 | 72.9 µM | –
O=C(O)COc1c(Cl)cc(Cl)c(C(c2c(Cl)cc(Cl)c(OCC(=O)O)c2Cl)C(Cl)(Cl)Cl)c1Cl | 48.1 µM | –
CCOC(=O)/C(C(=O)c1ccc[nH]1)=C1/CCCN1C | > 100 µM | –
COc1ccc2c(c1O)[C@@]13CCCC=C1[C@@H](C2)N(C)CC3 | > 100 µM | –
N#Cc1cnn(C(=O)c2nn(-c3ccc(Cl)cc3)cc2O)c1N | 46.6 µM | 0.439 µM
Nc1nc(N)c(CCCCc2ccc([N+](=O)[O-])cc2)c(N)n1 | > 100 µM | –
Cc1[nH]c2c(C)c3c([nH]c4ccc(Cl)cc43)c(C)c2c(=O)c1C | 77.4 µM | –
CCOC(=O)C(Oc1ccc(OC)c2c1C(=O)CCC2)c1ccccc1 (stereo not given) | > 100 µM | –
O=C1c2ccccc2C(=O)c2c1ccc1c3ccccc3n(-c3ccccc3)c21 | 43.3 µM | –
Nc1ncc(CN2CCCC2)c(-c2ccccc2O)n1 | > 750 µM | –
NC1(C(=O)O)CCC(C(=O)O)CC1 (stereo not given) | > 100 µM | –
CCC(C)C(NC(=O)c1cccc2c(=O)c3ccccc3[nH]c12)C(=O)O (stereo not given) | > 100 µM | –

SMILES | TGI | GI50
Cc1c(CCCl)c(Cl)n2c(nc3ccccc32)c1C#N | 3.05 µM | –
CN1C/C(=C\c2ccccc2)C2=NN(C(N)=S)[C@H](c3ccccc3)[C@@H]2C1 | > 100 µM | –
O=C(/C=C/c1ccco1)Nc1ncc(Cc2cc(Cl)ccc2Cl)s1 | > 100 µM | 0.492 µM
c1cc(CSP234N5CCN2CCN3CCN4CC5)cc(CSP234N5CCN2CCN3CCN4CC5)c1 | > 100 µM | –
CC(=O)OC1COC(N2C(=O)C(=O)c3ccccc32)C(OC(C)=O)C1OC(C)=O (stereo not given) | > 100 µM | –
CNC(=O)OC1/C(C)=C\C(C)C(O)C(OC)CC(C)CC2=C(OC)C(=O)C=C(C2=O)N(C)C(=O)/C(C)=C/C=C\C1OC (stereo not given) | 46.2 µM | < 0.1 µM
NP1(Oc2ccc(F)cc2)=NP(N)(Oc2ccc(F)cc2)=NP(Oc2ccc(F)cc2)(Oc2ccc(F)cc2)=N1 (stereo not given) | 15.2 µM | –
CC1=C(\C=C/C(C)=C/C=C/C(C)=C/C=C/C=C(C)\C=C\C=C(C)/C=C/C2=C(C)CCCC2(C)C)C(C)(C)CCC1 | > 100 µM | –
O=C(Nc1c[nH]c(=O)[nH]c1=O)Oc1ccccc1 | > 100 µM | –
CC(C)C(Sc1nc(N)nc2nc[nH]c12)C(=O)O (stereo not given) | > 100 µM | –
COC1=CC(=O)C2(C=C1OC)OC[C@H]1Oc3c(ccc4c3C=CC(C)(C)O4)C(=O)[C@H]12 (stereo not given in full) | > 100 µM | –
C=CCSC1=N/C(=C\c2ccc(C)cc2)C(=O)N1CC=C | > 100 µM | –
CCN(CC)C(=O)N[C@@H](CC(C)C)C(=O)NC | > 100 µM | –
COC1=CC(=O)[C@@]2(C)C(C)[C@H](c3ccccc3)[C@H]2C1=O (stereo not given in full) | > 100 µM | –
CCN(CC)c1ccc(N=Nc2ccc(-c3nc4cccnc4s3)cc2)cc1 | > 100 µM | –
COc1cc2c3c(c4ccc(O)cc4c2cc1OC)[C@@H](O)[C@@H]1CCCN1C3 | < 0.001 µM | –
CCCCCn1sc(=O)n(Cc2ccc(CNC(=O)C(C)c3ccc(CC(C)C)cc3)cc2)c1=O (stereo not given) | 3.17 µM | 1.61 µM
O=C1N[C@@H]([C@H]2CC[C@H](Cl)CN2)C(=O)N[C@H]1[C@H]1CC[C@H](Cl)CN1 | 57 µM | –
CC(=O)OC1(C(C)=O)CC2(c3ccccc3)OC1(c1ccccc1)c1ccccc12 (stereo not given) | > 100 µM | –

SMILES | TGI | GI50
CCC(CCCC[C@H]1CC[C@@H]2CC(=O)C[C@H]12)OC (stereo not given in full) | > 100 µM | –
N#CC1=C(N)OC2=C(CCCc3ccc([N+](=O)[O-])cc32)C1c1ccc(Cl)cc1 (stereo not given) | > 100 µM | –
O=C1CC2(CCN(Cc3ccccc3)CC2)C(=O)N1N1CCCCC1 | > 100 µM | –
COc1cc2c3c(c4cc(OC)c(OC)cc4c2cc1OC)CN1CCC[C@H]1C3 | 0.439 µM and 0.861 µM | 0.0433 µM and 0.0103 µM
O=C1c2ccccc2CC12Cc1ccc3c(c1C2=O)CCCC3 (stereo not given) | > 100 µM | –
CO[C@H]1C[C@H](O[C@H]2CC[C@@]3(C)[C@H](CC[C@@H]4[C@@H]3CC[C@]3(C)[C@@H](C5=CC(=O)OC5)CC[C@]43O)C2)O[C@H](C)[C@H]1O | 0.0499 µM | –
CC(=O)[CH-]C(=O)c1ccccc1.CC(=O)[CH-]C(=O)c1ccccc1.Cl.[O-]CCc1ccccn1.[O-]CCc1ccccn1.[Ti+4] | 58.3 µM | 18.5 µM
COc1cc2c(cc1C)NC(=O)/C2=C/c1c(Cl)[nH]c2ccccc12 | 25.8 µM | –
O=C(c1ccccc1)c1nn(-c2cccc(Cl)c2)c2nc3nc(-c4ccccc4)cc(=O)n3nc12 | > 25 µM | 0.86 µM
C(=C\c1ccc2ccccc2c1Nc1ccccc1)/c1ccccc1 | > 100 µM | –
COc1cc2c(c(O)c1OC)C(O)C1CCC(=O)N1C2c1ccc2c(c1)OCO2 (stereo not given) | > 100 µM | –
O=[N+]([O-])c1ccc(CSC2=C(c3ccc(Cl)cc3)S/C(=C3\SC(SCc4ccc([N+](=O)[O-])cc4)=C(c4ccc(Cl)cc4)S3)S2)cc1 | > 100 µM | –
COc1cccc(C2c3cc4c(cc3OC(NNS(=O)(=O)c3ccc(C)cc3)C2C)OCO4)c1O (stereo not given) | > 100 µM | –
COc1ccc(/C=C(\C#N)c2ccccn2)cc1OC | > 100 µM | –
N#CCCN(C(=O)Nc1ccc(NC(=O)N(CCC#N)c2ccccc2)cc1)c1ccccc1 | > 100 µM | –
O=C(CC(C(=O)c1ccsc1)c1cccs1)c1cccs1 (stereo not given) | > 100 µM | –
COc1cc(/C=N/NC(=O)c2cnn3c2NC(c2ccccc2)C3)ccc1OCc1ccccc1 (stereo not given) | 22.2 µM | 2.02 µM
CCCCCCNC(=O)CCN(C(=O)O)S(=O)(=O)c1ccc(NC(=O)c2ccccc2)cc1 | > 100 µM | –
